Assay results published in the supplement of paper PMC8728848.
Some of the results follow.

Key:
Experiment in all cases: glycan array binding signal (z-score within array); higher = stronger binding
Conditions in all cases: glycan notation: IUPAC condensed, linker removed
[1] = target: Fuc(a1-2)[Gal(a1-3)]Gal(b1-4)GlcNAc(b1-2)Man(a1-3)[Fuc(a1-2)[Gal(a1-3)]Gal(b1-4)GlcNAc(b1-2)Man(a1-6)]Man(b1-4)GlcNAc(b1-4)GlcNAc
In short: (§1)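 The Consortium for Functional Glycomics database supplied 3228 glycan arrays, of which those lacking an available protein sequence were dropped. The binding signal, a within-array Z-score, was averaged across arrays of the same protein sequence and across linkers. Negative scores can be read as non-binding.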

[2] = target: Fuc(a1-2)[Gal(a1-3)]Gal(b1-4)GlcNAc(b1-2)Man(a1-3)[Fuc(a1-2)[Gal(a1-3)]Gal(b1-4)GlcNAc(b1-2)Man(a1-6)]Man(b1-4)GlcNAc(b1-4)[Fuc(a1-6)]GlcNAc
In short: as §1

[3] = target: Fuc(a1-2)[Gal(a1-3)]Gal(b1-4)GlcNAc(b1-3)GalNAc
In short: as §1

[4] = target: Fuc(a1-2)[Gal(a1-3)]Gal(b1-4)GlcNAc(b1-3)[Fuc(a1-2)[Gal(a1-3)]Gal(b1-4)GlcNAc(b1-6)]GalNAc
In short: as §1

[5] = target: Fuc(a1-2)[Gal(a1-3)]Gal(b1-4)GlcNAc(b1-6)GalNAc
In short: as §1

[6] = target: Fuc(a1-2)[Gal(a1-3)]Gal(b1-4)[Fuc(a1-3)]Glc
In short: as §1

[7] = target: Fuc(a1-2)[Gal(a1-3)]Gal(b1-4)[Fuc(a1-3)]GlcNAc
In short: as §1

[8] = target: Fuc(a1-2)[Gal(a1-3)]Gal(b1-4)[Fuc(a1-3)]GlcNAc(b1-3)GalNAc
In short: as §1

[9] = target: Fuc(a1-2)[Gal(a1-4)]Gal(b1-4)GlcNAc
In short: as §1

[10] = target: Fuc(a1-2)[GalNAc(a1-3)]Gal
In short: as §1

[11] = target: Fuc(a1-2)[GalNAc(a1-3)]Gal(b1-3)GalNAc(a1-3)[Fuc(a1-2)]Gal(b1-4)GlcNAc
In short: as §1

[12] = target: Fuc(a1-2)[GalNAc(a1-3)]Gal(b1-3)GalNAc(b1-3)Gal(a1-4)Gal(b1-4)Glc
In short: as §1

[13] = target: Fuc(a1-2)[GalNAc(a1-3)]Gal(b1-3)GlcNAc
In short: as §1

[14] = target: Fuc(a1-2)[GalNAc(a1-3)]Gal(b1-3)GlcNAc(b1-2)Man(a1-3)[Fuc(a1-2)[GalNAc(a1-3)]Gal(b1-3)GlcNAc(b1-2)Man(a1-6)]Man(b1-4)GlcNAc(b1-4)GlcNAc
In short: as §1

[15] = target: Fuc(a1-2)[GalNAc(a1-3)]Gal(b1-3)GlcNAc(b1-2)Man(a1-3)[Fuc(a1-2)[GalNAc(a1-3)]Gal(b1-3)GlcNAc(b1-2)Man(a1-6)]Man(b1-4)GlcNAc(b1-4)[Fuc(a1-6)]GlcNAc
In short: as §1

[16] = target: Fuc(a1-2)[GalNAc(a1-3)]Gal(b1-3)GlcNAc(b1-3)GalNAc
In short: as §1

[17] = target: Fuc(a1-2)[GalNAc(a1-3)]Gal(b1-3)GlcNAc(b1-6)GalNAc
In short: as §1

[18] = target: Fuc(a1-2)[GalNAc(a1-3)]Gal(b1-4)Glc
In short: as §1

[19] = target: Fuc(a1-2)[GalNAc(a1-3)]Gal(b1-4)GlcNAc
In short: as §1

[20] = target: Fuc(a1-2)[GalNAc(a1-3)]Gal(b1-4)GlcNAc(b1-2)Man
In short: as §1

[21] = target: Fuc(a1-2)[GalNAc(a1-3)]Gal(b1-4)GlcNAc(b1-2)Man(a1-3)[Fuc(a1-2)[GalNAc(a1-3)]Gal(b1-4)GlcNAc(b1-2)Man(a1-6)]Man(b1-4)GlcNAc(b1-4)GlcNAc
In short: as §1

[22] = target: Fuc(a1-2)[GalNAc(a1-3)]Gal(b1-4)GlcNAc(b1-2)Man(a1-3)[Fuc(a1-2)[GalNAc(a1-3)]Gal(b1-4)GlcNAc(b1-2)Man(a1-6)]Man(b1-4)GlcNAc(b1-4)[Fuc(a1-6)]GlcNAc
In short: as §1

[23] = target: Fuc(a1-2)[GalNAc(a1-3)]Gal(b1-4)GlcNAc(b1-3)Gal(b1-4)GlcNAc
In short: as §1

[24] = target: Fuc(a1-2)[GalNAc(a1-3)]Gal(b1-4)GlcNAc(b1-3)Gal(b1-4)GlcNAc(b1-3)Gal(b1-4)GlcNAc
In short: as §1

[25] = target: Fuc(a1-2)[GalNAc(a1-3)]Gal(b1-4)GlcNAc(b1-3)GalNAc
In short: as §1

[26] = target: Fuc(a1-2)[GalNAc(a1-3)]Gal(b1-4)GlcNAc(b1-3)[Fuc(a1-2)[GalNAc(a1-3)]Gal(b1-4)GlcNAc(b1-6)]GalNAc
In short: as §1

[27] = target: Fuc(a1-2)[GalNAc(a1-3)]Gal(b1-4)GlcNAc(b1-6)GalNAc
In short: as §1

[28] = target: Fuc(a1-2)[GalNAc(a1-3)]Gal(b1-4)[Fuc(a1-3)]GlcNAc
In short: as §1

[29] = target: Fuc(a1-2)[GalNAc(a1-3)]Gal(b1-4)[Fuc(a1-3)]GlcNAc(b1-3)GalNAc
In short: as §1

[30] = target: Fuc(a1-2)[GalNAc(a1-4)]Gal(b1-4)GlcNAc
In short: as §1

[31] = target: Fuc(a1-2)[GalNAc(b1-3)]Gal
In short: as §1

Fuc(a1-3)GlcNAc = target: Fuc(a1-3)GlcNAc
In short: as §1

[32] = target: Fuc(a1-3)[Gal(b1-4)]Glc6S
In short: as §1

[33] = target: Fuc(a1-3)[Gal(b1-4)]GlcNAc
In short: as §1

[34] = target: Fuc(a1-3)[Gal(b1-4)]GlcNAc(b1-2)Man
In short: as §1

[35] = target: Fuc(a1-3)[Gal(b1-4)]GlcNAc(b1-2)Man(a1-3)[Fuc(a1-3)[Gal(b1-4)]GlcNAc(b1-2)Man(a1-6)]Man(b1-4)GlcNAc(b1-4)GlcNAc
In short: as §1

[36] = target: Fuc(a1-3)[Gal(b1-4)]GlcNAc(b1-2)Man(a1-3)[Fuc(a1-3)[Gal(b1-4)]GlcNAc(b1-2)Man(a1-6)]Man(b1-4)GlcNAc(b1-4)[Fuc(a1-6)]GlcNAc
In short: as §1

[37] = target: Fuc(a1-3)[Gal(b1-4)]GlcNAc(b1-3)Gal(b1-3)[Fuc(a1-4)]GlcNAc
In short: as §1

[38] = target: Fuc(a1-3)[Gal(b1-4)]GlcNAc(b1-3)Gal(b1-4)[Fuc(a1-3)]GlcNAc
In short: as §1

[39] = target: Fuc(a1-3)[Gal(b1-4)]GlcNAc(b1-3)Gal(b1-4)[Fuc(a1-3)]GlcNAc(b1-3)Gal(b1-4)[Fuc(a1-3)]GlcNAc
In short: as §1

[40] = target: Fuc(a1-3)[Gal(b1-4)]GlcNAc(b1-3)GalNAc
In short: as §1

[41] = target: Fuc(a1-3)[Gal(b1-4)]GlcNAc(b1-6)GalNAc
In short: as §1

[42] = target: Fuc(a1-3)[Gal(b1-4)]GlcNAc(b1-6)[Gal(b1-3)GlcNAc(b1-3)]Gal(b1-4)Glc
In short: as §1

[43] = target: Fuc(a1-3)[Gal(b1-4)]GlcNAc6S
In short: as §1

[44] = target: Fuc(a1-3)[Gal3S(b1-4)]Glc
In short: as §1

[45] = target: Fuc(a1-3)[Gal3S(b1-4)]GlcNAc
In short: as §1

[46] = target: Fuc(a1-3)[Gal3S(b1-4)]GlcNAc6S
In short: as §1

[47] = target: Fuc(a1-3)[GalNAc(b1-4)]GlcNAc
In short: as §1

[48] = target: Fuc(a1-3)[GalNAc(b1-4)]GlcNAc6S
In short: as §1

Fuc(a1-4)GlcNAc = target: Fuc(a1-4)GlcNAc
In short: as §1

Fuc(b1-3)GlcNAc = target: Fuc(b1-3)GlcNAc
In short: as §1

Gal(a1-2)Gal = target: Gal(a1-2)Gal
In short: as §1

Gal(a1-3)Gal = target: Gal(a1-3)Gal
In short: as §1

Gal(a1-3)Gal(b1-3)GlcNAc = target: Gal(a1-3)Gal(b1-3)GlcNAc
In short: as §1

[49] = target: Gal(a1-3)Gal(b1-3)GlcNAc(b1-2)Man
In short: as §1

[50] = target: Gal(a1-3)Gal(b1-3)GlcNAc(b1-2)Man(a1-3)[Gal(a1-3)Gal(b1-3)GlcNAc(b1-2)Man(a1-6)]Man(b1-4)GlcNAc(b1-4)GlcNAc
In short: as §1

[51] = target: Gal(a1-3)Gal(b1-3)GlcNAc(b1-3)GalNAc
In short: as §1

[52] = target: Gal(a1-3)Gal(b1-3)GlcNAc(b1-6)GalNAc
In short: as §1

[53] = target: Gal(a1-3)Gal(b1-3)[Fuc(a1-4)]GlcNAc(b1-2)Man(a1-3)[Gal(a1-3)Gal(b1-3)[Fuc(a1-4)]GlcNAc(b1-2)Man(a1-6)]Man(b1-4)GlcNAc(b1-4)GlcNAc
In short: as §1

Gal(a1-3)Gal(b1-4)Glc = target: Gal(a1-3)Gal(b1-4)Glc
In short: as §1

B1: MpAFP NterminalRI GFP (Marinomonas primoryensis) (protein)
chain: MSDNQFPFATLGNAIGFITKLDGSVTVQSIDGQERVLKLGDPIFFGETVLTGGSGSVTIAFVDGTDVVIGGDSIVEMTDEIYNTGDNEDLVADSSSEIDALQNAILAGDDPTLIQDAPAAGNTLADQQRVDVSIERNDNSAQAGFGVDTQSSLPTYGYDTDNGNGGQATEREYSAPSLSRTLNQSPLLEHHHHHH
glycan array binding signal (z-score) [1]: -0.087
glycan array binding signal (z-score) [2]: -0.217
glycan array binding signal (z-score) [3]: -0.59
glycan array binding signal (z-score) [4]: -0.48
glycan array binding signal (z-score) [5]: -0.206
glycan array binding signal (z-score) [6]: -0.413
glycan array binding signal (z-score) [7]: -0.414
glycan array binding signal (z-score) [8]: 0.073
glycan array binding signal (z-score) [9]: 0.323
glycan array binding signal (z-score) [10]: -0.077
glycan array binding signal (z-score) [11]: -0.445
glycan array binding signal (z-score) [12]: 0.004
glycan array binding signal (z-score) [13]: -0.215
glycan array binding signal (z-score) [14]: -0.2
glycan array binding signal (z-score) [15]: -0.2
glycan array binding signal (z-score) [16]: 1.33
glycan array binding signal (z-score) [17]: -0.494
glycan array binding signal (z-score) [18]: -0.684
glycan array binding signal (z-score) [19]: -0.567
glycan array binding signal (z-score) [20]: -0.305
glycan array binding signal (z-score) [21]: -0.078
glycan array binding signal (z-score) [22]: -0.21
glycan array binding signal (z-score) [23]: 0.153
glycan array binding signal (z-score) [24]: 0.104
glycan array binding signal (z-score) [25]: 0.195
glycan array binding signal (z-score) [26]: -0.542
glycan array binding signal (z-score) [27]: -0.33
glycan array binding signal (z-score) [28]: -0.086
glycan array binding signal (z-score) [29]: -0.054
glycan array binding signal (z-score) [30]: -0.466
glycan array binding signal (z-score) [31]: -0.412
glycan array binding signal (z-score) (Fuc(a1-3)GlcNAc): 0.478
glycan array binding signal (z-score) [32]: 0.539
glycan array binding signal (z-score) [33]: -0.377
glycan array binding signal (z-score) [34]: -0.193
glycan array binding signal (z-score) [35]: -0.554
glycan array binding signal (z-score) [36]: 0.349
glycan array binding signal (z-score) [37]: 0.65
glycan array binding signal (z-score) [38]: 0.109
glycan array binding signal (z-score) [39]: -0.311
glycan array binding signal (z-score) [40]: 0.476
glycan array binding signal (z-score) [41]: 0.037
glycan array binding signal (z-score) [42]: -0.1
glycan array binding signal (z-score) [43]: 2.35
glycan array binding signal (z-score) [44]: -0.447
glycan array binding signal (z-score) [45]: -0.536
glycan array binding signal (z-score) [46]: 0.109
glycan array binding signal (z-score) [47]: -0.088
glycan array binding signal (z-score) [48]: -0.366
glycan array binding signal (z-score) (Fuc(a1-4)GlcNAc): 2.46
glycan array binding signal (z-score) (Fuc(b1-3)GlcNAc): 0.401
glycan array binding signal (z-score) (Gal(a1-2)Gal): 0.182
glycan array binding signal (z-score) (Gal(a1-3)Gal): -0.531
glycan array binding signal (z-score) (Gal(a1-3)Gal(b1-3)GlcNAc): -0.195
glycan array binding signal (z-score) [49]: -0.467
glycan array binding signal (z-score) [50]: 0.159
glycan array binding signal (z-score) [51]: -0.294
glycan array binding signal (z-score) [52]: -0.446
glycan array binding signal (z-score) [53]: 1.99
glycan array binding signal (z-score) (Gal(a1-3)Gal(b1-4)Glc): 0.421
